Molecules are shown by their SMILES. The list shows a part of the results. Further columns of the screen follow, without active or inactive calls. Compounds called inactive in the main read-out are mostly missing here.

Data on 105 compounds can be found in PubChem BioAssay AID434955 (Southern Research Specialized Biocontainment Screening …, 2010).

This experiment in a line: beta-lactam sensitization of Mtb H37Rv, H37Rv (AID 434955).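 Further: growth measured after seven days incubation then overnight dye step; 0% = bacteria only wells and 100% = bacteria with antibiotic.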 The following applies: M. tuberculosis H37Rv growth with meropenem, percent inhibition; measured here: primary screen without meropenem; at 25 µM.
As for `O=C(CSc1ccc2nnc(-c3cccnc3)n2n1)Nc1ccc(F)cc1`, the inhibition is -0.15%.
Turning to `COc1c(NC(C)=O)c2ccccc2c2ccccc12`, the inhibition worked out at 1.51%.
Take `CCn1c(=O)c(C(=O)NCCc2ccc(OC)c(OC)c2)c(O)c2ccccc21`: the inhibition was found to be 6.36%.
To `Cn1c(=O)c2[nH]c(CNCc3ccccc3Cl)nc2n(C)c1=O` belongs 17.2%; to `C[n+]1ccccc1/C=C/c1ccc([N+](=O)[O-])cc1`, 1.42%; to `Cc1ccc(CNC(=O)CSc2nnc(CNC(=O)c3ccccc3)o2)cc1`, 13.1%.
The value for `CCCCCCc1nc(C(N)=O)c2[nH]c(=O)n(-c3ccc(OCC)cc3)c2n1` was 9.43%; that for `CC(=O)Nc1ccc(SCC(=O)c2cc(C)n(C)c2C)cc1` was 34.4%; that for `Cc1nnnn1/C(=C\c1ccccc1)C(=O)OCC(=O)Nc1ccc(Cl)cc1F` was 39.6%.
For the compound `O=C(N[C@@H](Cc1ccccc1)C(=O)CCl)OCc1ccccc1`, the inhibition was 29.7%.
To `c1ccc(-c2ccccc2OCCN2CCCCC2)cc1` belongs -12.7%.
To `Cc1c(NC(=S)NC(=O)c2ccccc2Br)c(=O)n(-c2ccccc2)n1C` belongs 2.84%; to `O=C(N/N=C/c1ccc(-c2cccc(C(F)(F)F)c2)o1)c1ccccc1O`, 37.8%; to `COc1ccccc1NC(=O)CSC1CC(=O)N(c2ccc3c(c2)OCO3)C1=O` (stereo not given), 4.63%.
`COc1ccc(C(=O)Nc2ccnn2C2CCN(Cc3ccncc3)CC2)cc1`: the inhibition stood at 2%.
With `C/C(=N\NC(=O)c1cc(Br)ccc1O)c1ccccn1`, the inhibition came to 28.2%.
Regarding `O=C(c1ccc(F)cc1Cl)N1CCN(S(=O)(=O)c2cccs2)CC1`, the inhibition is -4.19%.
The value for `COc1ccc(C2C(C#N)=C(SCC(=O)Nc3ccc(C)cc3)NC3=C2C(=O)CC(C)(C)C3)cc1` (stereo not given) was 35.6%; that for `O=C(c1ccc(NS(=O)(=O)c2cccc(F)c2)cc1)N1CCCC1` was -2.75%; that for `C/C(=N/NC(=O)c1ccc(Br)o1)c1cccc(NC(=O)c2ccc(F)cc2)c1` was -5.11%.
Regarding `Cc1ccc(NS(=O)(=O)c2c(C)[nH]c(C)c2C(=O)N2CCCC2)cc1`, the inhibition came to 2.46%.
For the compound `O=C(NC1CC1)c1ccc(CS(=O)c2ccccc2)o1` (stereo not given), the inhibition is -6.45%.
As for `CC1C/C(=N/NC(=O)c2cccc(F)c2)c2ccc(O)cc2C1` (stereo not given), the inhibition is 99.2%.
To `Cc1cccc(C(=O)NNC(=S)NC(=O)c2cccs2)c1` belongs 94.3%; to `COc1ccc(OC2CCN(S(=O)(=O)c3ccc(F)cc3)CC2)cc1`, 3.59%; to `CC(=O)CSc1nnc(-c2ccc(S(=O)(=O)N3CCC(C)CC3)cc2)o1`, -8.11%.
On to `CCOC(=O)COc1ccc2nsnc2c1`, for which the inhibition was determined as 33.8%.
With `O=C(CS(=O)(=O)c1cn(CC(=O)N2CCCC2)c2ccccc12)Nc1ccccc1F`, the inhibition came to 2.67%.
The value for `CCOc1cc(C(=O)OCc2ccc(C(=O)OC)o2)cc(Br)c1OC` was 94.4%.
To `COc1ccc(C)cc1S(=O)(=O)N1CCCC(C(=O)N2CCN(c3ccccc3)CC2)C1` (stereo not given) belongs 4.56%; to `Cc1cccc(C)c1-n1c(C)cc(/C=C2\C(=O)NN(c3ccccc3)C2=O)c1C`, 34.1%.
The value for `O=C(NC(Cc1c[nH]c2ccccc12)c1nnc2n1CCCCC2)c1ccc(Cl)cc1` (stereo not given) was 2.55%; that for `COC(=O)c1ccsc1NC(=O)CCS(=O)(=O)c1ccccc1` was 1.52%; that for `N#C/C(=C\c1c(N2CCCCC2)nc2ccccn2c1=O)C(=O)NC1CCS(=O)(=O)C1` (stereo not given) was -6.35%.
In the case of `C=CCn1c(SCC(=O)c2cc(C)n(CC3CCCO3)c2C)nnc1-c1ccccc1` (stereo not given), the inhibition is -8.46%.
The value for `CC1CCCN(S(=O)(=O)c2coc(C(N)=O)c2)C1` (stereo not given) was 0.93%; that for `CCOC(=O)CSc1nc2c(c(=O)[nH]c(=O)n2C)n1C/C=C(/C)Cl` was 1.87%.
To `O=C(/C=C/c1cccnc1)c1ccc(O)cc1` belongs 2.21%; to `O=C(O)CCC1c2cc3c4cc2OC2Oc5cc6c(cc51)C(CCC(=O)O)c1cc5c7cc1OC(O6)c1cc6cc(c1)Oc1cc(cc(C(=O)O)c1)Oc1cc8cc(c1)C(Oc1cc(c(cc1C5CCC(=O)O)C3CCC(=O)O)OC(O4)c1cc(cc(c1)Oc1cc(cc(C(=O)O)c1)O8)Oc1cc(cc(C(=O)O)c1)Oc1cc(cc2c1)Oc1cc(cc(C(=O)O)c1)O6)O7` (stereo not given), 0.26%; to `Cc1ccc(C)c(CSC2=NCCN2S(=O)(=O)c2ccccc2)c1`, 9.04%.
The value for `COc1ccc(N(CC(=O)Nc2ccc(C)cn2)S(=O)(=O)c2c(C)noc2C)cc1` was 2.53%; that for `CCC(C)NC(=O)c1ccc(NC(=O)C2CCCO2)cc1` (stereo not given) was -2.41%.
Turning to `O=[n+]1c2c(n([O-])c3c1CCCC3)CCCC2`, the inhibition is -2.94%.
For the compound `O=C(COCc1cc(-c2ccc3c(c2)OCO3)on1)N1CCCCC1`, the inhibition came to 0.53%.
The value for `CC(C)CC(O)(c1ccccc1)C(CN1CCOCC1)c1ccccc1` (stereo not given) was 4.11%; that for `CCOC(=O)C1(Cc2cccc(Cl)c2)CCCN(C(=O)c2cn[nH]c2)C1` (stereo not given) was -8.53%.
With `COc1ccc(N2C(=O)NC(NS(=O)(=O)c3ccc(NC(C)=O)cc3)(C(F)(F)F)C2=O)cc1` (stereo not given), the inhibition is -7.47%.
To `O=c1c2[nH]c3ccccc3c2ncn1CCN1CCOCC1` belongs 3.43%; to `Cc1n[nH]c(C)c1CCCOc1ccccc1`, 27.7%; to `CSCC[C@H](NC(=O)C1CCN(C(=O)[C@H](Cc2ccccc2)NS(=O)(=O)c2ccc(C)cc2)CC1)C(=O)O`, -4.37%.
To `O=C(c1cc(COc2ccc(F)cc2F)on1)N1CC[C@@H]2CCCC[C@H]2C1` belongs 8.08%.
Take `CCOCC(=O)Nc1ccc(F)c(F)c1`: the inhibition stood at 18.1%.
Regarding `CC1=C(C(=O)OCc2ccccc2)C(c2ccco2)n2ncnc2N1` (stereo not given), the inhibition is -7.12%.
To `COc1ccc(/C=N/n2c(C3CCCCC3)n[nH]c2=S)c(OC)c1` belongs 3.72%; to `Cc1ccccc1N1CCN(C2CCCN(C(=O)CN3CCCC3=O)C2)CC1` (stereo not given), -0.66%.
With `COc1ccc(S(=O)(=O)N2CCCCC2)cc1N(C)S(=O)(=O)c1ccccc1`, the inhibition is 4.62%.
In the case of `COc1ccc(C2NC3=C(CCCC3)C(C#N)(C#N)C2(C#N)C#N)cc1` (stereo not given), the inhibition was -1.54%.
As to `O=c1c2cnn(-c3ccccc3)c2ncn1CCc1ccccc1`, the inhibition was 1.74%.
On to `CCOc1ccc(-c2cccc(NC(=O)COc3ccccc3)c2)nn1`, for which the inhibition was -0.05%.
The value for `Cc1ccc(SCc2c(C#N)c3ccccc3n2C)cc1` was 39.4%; that for `COCCn1c(SC(C(=O)Nc2cc(C)ccc2OC)c2ccccc2)nnc1-c1ccc(Cl)cc1` (stereo not given) was 12.1%.
The value for `CCCCCc1c(C)nc(N2CCN(Cc3ccc4c(c3)OCO4)CC2)[nH]c1=O` was -4.38%; that for `Cc1cc(C)cc(NC(=O)c2nnn(Cc3cc(C)ccc3C)c2N)c1` was 1.84%.
`C#Cc1ccc(C(=O)Nc2cc(C(N)=O)ccc2N2CCOCC2)cc1`: the inhibition was -8.87%.
For the compound `Cc1ccc(S(=O)(=O)NCC2COc3ccccc3O2)cc1` (stereo not given), the inhibition was determined as 8.5%.
To `CC(C)c1ccc(/C=N/n2c(COc3ccccc3)n[nH]c2=S)cc1` belongs 16%; to `COc1ccc(OCCNC(=S)Nc2cccc3ccccc23)cc1`, 1.76%; to `Cc1ncc(CN2CCC(N3CCC(C(=O)N4CCCC4)CC3)CC2)s1`, -1.84%.
To `Cn1c(=O)n(CC(=O)O)c(=O)c2c1nc1n2CCS1` belongs -6.65%.
The value for `COc1ccc(C2c3c(oc4ccccc4c3=O)C(=O)N2CCCN2CCOCC2)cc1` (stereo not given) was -3.55%.
As to `O=C(CN1C(=O)c2cccnc2Oc2ccc(Cl)cc21)Nc1ccc(F)cc1`, the inhibition was -11.6%.
To `Cc1ccc(S(=O)(=O)NCCCCCC(=O)Nc2ccccn2)cc1` belongs 24.2%.
To `CN(NC(=O)c1c(Cl)cccc1Cl)c1cccc(Cl)n1` belongs 49.7%; to `O=C(Cn1cnc2c(nnn2-c2cccc(F)c2)c1=O)Nc1ccc2c(c1)OCCO2`, -2.78%; to `CCC(C)NC(=O)C1CCN(S(=O)(=O)c2ccc3[nH]c(=O)ccc3c2)CC1` (stereo not given), -5.24%.
The value for `COCCCNCCOc1ccc(C)cc1[N+](=O)[O-]` was -5.82%.
In the case of `Cc1ccc(CNC(=O)c2ccccc2NC(=O)CSc2nnnn2C)cc1`, the inhibition was found to be 19.2%.
To `Cc1ccc(-c2nc3[nH]c(=O)cc(NC(=O)C(C)C)n3n2)cc1` belongs 9.7%.
The value for `CC1CN(c2ccc([N+](=O)[O-])cc2F)CCN1C(=O)c1ccco1` (stereo not given) was 11.4%.
The value for `COc1ccc(OCC(=O)NNC(=O)c2cccnc2)cc1` was 0.82%; that for `CC(C)C(=O)c1cc2c(cc1NC(=O)c1ccccc1)OCCO2` was -2.35%; that for `CCOC(=O)C1C(=O)NC(SC)=C(C#N)C1c1ccccc1F` (stereo not given) was -1.22%.
On to `CCN1CCN(C(=O)Cn2c(=O)sc3ccccc32)CC1`, for which the inhibition is -2.88%.
The value for `CCOC(=O)c1cc2c(=O)c3ccccc3oc2nc1C` was -0.55%; that for `O=C(Nc1ccc2c(c1)CCC2)C1CCN(c2c3c(nc4ncnn24)CCC3)CC1` was -2.3%.
To `CC(=O)C1=C(O)C(=O)N(c2ccccn2)C1c1cccc(F)c1` (stereo not given) belongs 3.74%.
As to `CCOc1ccc(NC(=O)CN(C)C(=O)CCc2ccccc2Cl)cc1OCC`, the inhibition is -11.4%.
The value for `Cc1ccccc1OCC(=O)Nc1ccccc1N1CCOCC1` was 16.4%; that for `O=C(c1csc2c1CCCC2)n1cccn1` was 3.53%.
To `O=C(CN1CCOc2ccccc21)NCc1ccco1` belongs -4.39%; to `Cc1ccc(-c2nnn3c2nc(NCCc2ccc(S(N)(=O)=O)cc2)c2ccccc23)cc1`, 10.7%; to `Cc1ccc(C(=O)N2CCN(c3ccccc3)CC2)cc1S(=O)(=O)N1CCOCC1`, -0.64%.
For `CC1CCCCN1CCNC(=O)CCc1nnc2n(Cc3ccccc3)c(=O)c3ccccc3n12` (stereo not given), the inhibition was -12.4%.
Consider `CC(=O)N1CCN(c2ccccc2NC(=O)c2cccs2)CC1`, for which the inhibition amounted to 2.97%.
To `CC(=O)c1ccc(NC(=S)Nc2ccc(N3CCOCC3)cc2)cc1` belongs 2.24%; to `Cc1cccc(CSc2nnc(C)c(=O)n2N)c1`, 34.4%; to `COc1ccc(-n2nnnc2/C=C\Nc2ccccc2C(=O)c2ccccc2)cc1`, -1.36%.
To `Cc1ccc(C(=O)N2CCCC(CCC(=O)NCc3ccccc3F)C2)cn1` (stereo not given) belongs 3.06%.
To `CCOC(=O)N1CCN(Cc2ccccc2Cl)CC1` belongs -0.21%; to `O=C(CSc1nc2ccccc2c(=O)[nH]1)Nc1ccc(S(=O)(=O)N2CCCC2)cc1`, -4.19%; to `CN(C)CCCN(C(=O)c1ccco1)c1nc2cc3c(cc2s1)OCO3`, -0.71%.
Turning to `COc1ccc(C(=O)N2CCCC(CCC(=O)N3CCN(c4ccccn4)CC3)C2)cc1` (stereo not given), the inhibition amounted to 0.72%.
To `O=C1/C(=C\c2ccncc2)CCc2ccccc21` belongs 97.9%; to `O=C(NNC(=O)c1ccc[nH]1)c1cc(Cl)cc(Cl)c1`, -3%.
`COc1ccc(CN(CCC#N)C(=S)NC(=O)c2ccccc2)cc1`: the inhibition is 35.1%.

The inhibition is the relative decrease from the control value, in per cent.
